{
  "source": "paper PMC4336329",
  "about": "(PLoS ONE, 2015)",
  "note": "About 2,200 (0.71%) of roughly 310,000 compounds showed an effect of 50% or more. The effect is printed as a negative number. Some of the results follow.",
  "data": [
    {"target": "human ether-à-go-go-related gene (hERG) potassium channel (human, UniProt Q12809)", "sequence (Q12809 whole entry, looked up)": "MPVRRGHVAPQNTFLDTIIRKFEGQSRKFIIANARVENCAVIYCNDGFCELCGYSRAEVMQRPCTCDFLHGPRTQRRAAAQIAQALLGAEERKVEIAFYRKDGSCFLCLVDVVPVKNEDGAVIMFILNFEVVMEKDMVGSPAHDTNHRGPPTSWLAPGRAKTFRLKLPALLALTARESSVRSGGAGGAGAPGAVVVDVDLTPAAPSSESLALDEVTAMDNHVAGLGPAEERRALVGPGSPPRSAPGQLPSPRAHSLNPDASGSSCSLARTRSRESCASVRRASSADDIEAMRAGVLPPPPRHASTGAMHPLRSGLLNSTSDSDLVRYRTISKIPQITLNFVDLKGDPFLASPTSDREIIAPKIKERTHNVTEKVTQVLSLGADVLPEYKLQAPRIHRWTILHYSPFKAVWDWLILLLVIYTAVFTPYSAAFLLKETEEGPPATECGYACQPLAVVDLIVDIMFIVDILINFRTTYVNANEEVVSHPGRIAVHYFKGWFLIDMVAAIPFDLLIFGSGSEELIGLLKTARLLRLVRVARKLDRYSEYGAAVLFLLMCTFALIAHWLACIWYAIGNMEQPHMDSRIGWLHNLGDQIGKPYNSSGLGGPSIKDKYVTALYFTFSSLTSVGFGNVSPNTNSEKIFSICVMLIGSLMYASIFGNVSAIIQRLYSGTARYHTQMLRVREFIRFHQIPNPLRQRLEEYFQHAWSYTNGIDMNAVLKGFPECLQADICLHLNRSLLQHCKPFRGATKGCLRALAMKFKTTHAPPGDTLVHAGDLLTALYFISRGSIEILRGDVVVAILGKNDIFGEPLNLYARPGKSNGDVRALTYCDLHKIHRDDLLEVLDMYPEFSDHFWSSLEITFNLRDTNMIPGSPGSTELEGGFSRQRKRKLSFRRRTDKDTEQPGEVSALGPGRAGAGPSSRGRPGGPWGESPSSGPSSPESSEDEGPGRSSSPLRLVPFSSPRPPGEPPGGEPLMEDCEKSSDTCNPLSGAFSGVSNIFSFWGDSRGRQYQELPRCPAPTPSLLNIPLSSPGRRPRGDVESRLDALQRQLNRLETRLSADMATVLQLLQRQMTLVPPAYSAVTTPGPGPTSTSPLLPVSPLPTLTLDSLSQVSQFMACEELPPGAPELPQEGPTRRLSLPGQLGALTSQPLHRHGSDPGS", "assay": "primary screen, population patch clamp on CHO cells stably expressing hERG", "units": {"hERG current change (%, negative = inhibition) at 1uM": "%"}, "values": [
      {"smiles": "Cc1ccc(C)c(Cn2cnc3c(nnn3-c3ccc(F)cc3)c2=O)c1", "hERG current change (%, negative = inhibition) at 1uM": -0.0639},
      {"smiles": "Cc1nnc(NC(=O)CC(C)c2ccccc2)s1", "note": "(stereo not drawn)", "hERG current change (%, negative = inhibition) at 1uM": 15.8},
      {"smiles": "CCN(CC(=O)Nc1c(F)cccc1F)C(=O)CSc1ccc(F)cc1", "hERG current change (%, negative = inhibition) at 1uM": -2.96},
      {"smiles": "CC(C)N1CCN(Cc2cn[nH]c2C2CCCCC2)CC1CCO", "note": "(stereo not drawn)", "hERG current change (%, negative = inhibition) at 1uM": 8.99},
      {"smiles": "CCOc1ccc(NC(=S)NNC(=O)CC(C)O)cc1", "note": "(stereo not drawn)", "hERG current change (%, negative = inhibition) at 1uM": 25.6},
      {"smiles": "CC(=O)Nc1ccc(NC(=O)C(C)c2cccc(C(=O)c3ccccc3)c2)cc1", "note": "(stereo not drawn)", "hERG current change (%, negative = inhibition) at 1uM": 17.1},
      {"smiles": "COc1ccc(CNC(=O)c2c([S-])n(-c3ccc(C)cc3)c3cccc[n+]23)cc1", "hERG current change (%, negative = inhibition) at 1uM": 8.04},
      {"smiles": "C=CCn1c(SCC(=O)NCc2ccc3c(c2)OCO3)nnc1-c1cccnc1", "hERG current change (%, negative = inhibition) at 1uM": 8.01},
      {"smiles": "Cc1cc(OCC(=O)NCCCN2CCOCC2)cc(C)c1Cl", "hERG current change (%, negative = inhibition) at 1uM": 3.6},
      {"smiles": "CC(C)(C)NC(=O)C(c1ccccn1)N(C(=O)C1CSC(=O)C1)c1ccc(F)cc1", "note": "(stereo not drawn)", "hERG current change (%, negative = inhibition) at 1uM": 10.4},
      {"smiles": "C=CCNc1nc(NCCO)nc(N2CCCC2)n1", "hERG current change (%, negative = inhibition) at 1uM": 10.8},
      {"smiles": "COc1ccccc1C(=O)NCCC(=O)N(C)CC(=O)Nc1ccc(N2CCOCC2)cc1", "hERG current change (%, negative = inhibition) at 1uM": -8.37},
      {"smiles": "CCN(CC(=O)NC1CCS(=O)(=O)C1)S(=O)(=O)c1ccc2ccccc2c1", "note": "(stereo not drawn)", "hERG current change (%, negative = inhibition) at 1uM": 2},
      {"smiles": "CC(=O)c1cccc(CN2CCN(C3CCCCC3)C(CCO)C2)c1", "note": "(stereo not drawn)", "hERG current change (%, negative = inhibition) at 1uM": 1.26},
      {"smiles": "CN(c1cccc(NC(=O)Nc2cccc(Cl)c2)c1)S(C)(=O)=O", "hERG current change (%, negative = inhibition) at 1uM": 3.08},
      {"smiles": "CCCC1=C(C(=O)OCC)C(c2ccc(N(C)C)cc2)n2ncnc2N1", "note": "(stereo not drawn)", "hERG current change (%, negative = inhibition) at 1uM": 0.474},
      {"smiles": "O=C(CCCc1c[nH]c2ccccc12)NCCc1c[nH]c2ccccc12", "hERG current change (%, negative = inhibition) at 1uM": 12},
      {"smiles": "Cc1cccc(C(=O)Nc2c(C#N)c(C)c(C)n2Cc2ccccc2)c1", "hERG current change (%, negative = inhibition) at 1uM": 11.6},
      {"smiles": "CNC(=O)Nc1ccc(C(O)(C(=O)OC)C(F)(F)F)cc1", "note": "(stereo not drawn)", "hERG current change (%, negative = inhibition) at 1uM": 19.6},
      {"smiles": "CN(C)c1ccc(CN2CCCCCC2)cc1", "hERG current change (%, negative = inhibition) at 1uM": 13.7},
      {"smiles": "CCOc1ccccc1N(C(=O)c1snc(C(N)=O)c1N)C(C(=O)NCCC(C)C)c1ccco1", "note": "(stereo not drawn)", "hERG current change (%, negative = inhibition) at 1uM": -15.6},
      {"smiles": "COC(=O)NC(=C(Cl)Cl)P(=O)(c1ccccc1)c1ccccc1", "hERG current change (%, negative = inhibition) at 1uM": 14.6},
      {"smiles": "Cc1cc(Cl)ccc1C(=O)C1CCCN(C(=O)/C=C/c2cnn(C)c2)C1", "note": "(stereo not drawn)", "hERG current change (%, negative = inhibition) at 1uM": 6.5},
      {"smiles": "CC(C)CCNC(=O)c1ccc2c(SCC(=O)O)c3c(nc2c1)CCCC3", "hERG current change (%, negative = inhibition) at 1uM": 4.08},
      {"smiles": "COc1cccc(C(=O)NCC(=O)OCC(=O)c2ccccc2)c1", "hERG current change (%, negative = inhibition) at 1uM": 9.73},
      {"smiles": "CCn1c(/C=C/c2c(C)n(CC)c3ccccc23)nc2ccccc2c1=O", "hERG current change (%, negative = inhibition) at 1uM": -11.2},
      {"smiles": "CC1CN(C(=O)c2ccn(C)n2)CC(C)O1", "note": "(stereo not drawn)", "hERG current change (%, negative = inhibition) at 1uM": 13},
      {"smiles": "Cc1nc(-c2cc(-c3nc(-c4ccc(C(F)(F)F)cc4)no3)no2)cs1", "hERG current change (%, negative = inhibition) at 1uM": -7.99},
      {"smiles": "Cc1nc(-c2ccccc2)sc1-c1nc(-c2cccnc2)ncc1S(=O)(=O)c1ccccc1", "hERG current change (%, negative = inhibition) at 1uM": 6.14},
      {"smiles": "COc1cccc2cc(C(C)N(CCCN3CCOCC3)C(=S)Nc3cc(C)cc(C)c3)oc12", "note": "(stereo not drawn)", "hERG current change (%, negative = inhibition) at 1uM": 4.98},
      {"smiles": "Cc1cccc(CN2CCC(CNC(=O)C3CCCN(S(=O)(=O)c4cnc[nH]4)C3)CC2)c1", "note": "(stereo not drawn)", "hERG current change (%, negative = inhibition) at 1uM": -6.2},
      {"smiles": "Cc1ccc(N(C)S(=O)(=O)c2ccc(-c3cc(C)no3)s2)cc1", "hERG current change (%, negative = inhibition) at 1uM": 6.66},
      {"smiles": "CC(=O)c1cc(-c2ccccc2)n(CCC(=O)NC(C)(C)C)c1C", "hERG current change (%, negative = inhibition) at 1uM": 5.53},
      {"smiles": "CCCC1(c2ccccc2)NC(=O)N(CC(=O)NCc2ccc(OC)cc2)C1=O", "note": "(stereo not drawn)", "hERG current change (%, negative = inhibition) at 1uM": 9.47},
      {"smiles": "COc1cccc(C2CC(c3c(-c4ccccc4)c4cc(Cl)ccc4[nH]c3=O)=NN2S(C)(=O)=O)c1OC", "note": "(stereo not drawn)", "hERG current change (%, negative = inhibition) at 1uM": 10.2},
      {"smiles": "OCCCc1n[nH]c(=S)n1-c1ccccc1", "hERG current change (%, negative = inhibition) at 1uM": 11.4},
      {"smiles": "C=CCOc1c2ccc(C(=O)N(CC)c3ccc(OC)cc3)cc2nn1C", "hERG current change (%, negative = inhibition) at 1uM": 16},
      {"smiles": "CCS(=O)(=O)N1CCCC(C(=O)NCCCOC)C1", "note": "(stereo not drawn)", "hERG current change (%, negative = inhibition) at 1uM": 16.6},
      {"smiles": "CC(=O)Oc1ccc(-c2nc3ccccc3c(=O)o2)cc1", "hERG current change (%, negative = inhibition) at 1uM": 10.3},
      {"smiles": "Cc1ccc(O)c(C(CC(=O)NCc2ccco2)c2ccccc2)c1", "note": "(stereo not drawn)", "hERG current change (%, negative = inhibition) at 1uM": 9.48},
      {"smiles": "O=C1c2cccc3cccc(c23)N1Cc1ccc(F)cc1", "hERG current change (%, negative = inhibition) at 1uM": 3},
      {"smiles": "Cc1nn(CCC(=O)NNC(=S)Nc2cccc(Cl)c2)c(C)c1[N+](=O)[O-]", "hERG current change (%, negative = inhibition) at 1uM": -1.73},
      {"smiles": "CCOc1ccsc1C(=O)OC", "hERG current change (%, negative = inhibition) at 1uM": 14.7},
      {"smiles": "Cc1ccc(NS(=O)(=O)c2c(C)[nH]c(=O)[nH]c2=O)cc1C", "hERG current change (%, negative = inhibition) at 1uM": 2.72},
      {"smiles": "Cc1c(C=O)c2ccccc2n1Cc1ccc(F)cc1", "hERG current change (%, negative = inhibition) at 1uM": 8.22}
    ]}
  ]
}
